Assay results taken from PMC4336329 (PLoS ONE, 2015).
Among all 310,000 compounds or so, about 2,200 (0.71%) showed an effect of 50% or more. The effect is printed as a negative number. The list shows a part of the results.

Each compound was assayed against human ether-à-go-go-related gene (hERG) potassium channel (human, UniProt Q12809) (assay: primary screen, population patch clamp on CHO cells stably expressing hERG).
Chain of human ether-à-go-go-related gene (hERG) potassium channel (Q12809 whole entry, looked up): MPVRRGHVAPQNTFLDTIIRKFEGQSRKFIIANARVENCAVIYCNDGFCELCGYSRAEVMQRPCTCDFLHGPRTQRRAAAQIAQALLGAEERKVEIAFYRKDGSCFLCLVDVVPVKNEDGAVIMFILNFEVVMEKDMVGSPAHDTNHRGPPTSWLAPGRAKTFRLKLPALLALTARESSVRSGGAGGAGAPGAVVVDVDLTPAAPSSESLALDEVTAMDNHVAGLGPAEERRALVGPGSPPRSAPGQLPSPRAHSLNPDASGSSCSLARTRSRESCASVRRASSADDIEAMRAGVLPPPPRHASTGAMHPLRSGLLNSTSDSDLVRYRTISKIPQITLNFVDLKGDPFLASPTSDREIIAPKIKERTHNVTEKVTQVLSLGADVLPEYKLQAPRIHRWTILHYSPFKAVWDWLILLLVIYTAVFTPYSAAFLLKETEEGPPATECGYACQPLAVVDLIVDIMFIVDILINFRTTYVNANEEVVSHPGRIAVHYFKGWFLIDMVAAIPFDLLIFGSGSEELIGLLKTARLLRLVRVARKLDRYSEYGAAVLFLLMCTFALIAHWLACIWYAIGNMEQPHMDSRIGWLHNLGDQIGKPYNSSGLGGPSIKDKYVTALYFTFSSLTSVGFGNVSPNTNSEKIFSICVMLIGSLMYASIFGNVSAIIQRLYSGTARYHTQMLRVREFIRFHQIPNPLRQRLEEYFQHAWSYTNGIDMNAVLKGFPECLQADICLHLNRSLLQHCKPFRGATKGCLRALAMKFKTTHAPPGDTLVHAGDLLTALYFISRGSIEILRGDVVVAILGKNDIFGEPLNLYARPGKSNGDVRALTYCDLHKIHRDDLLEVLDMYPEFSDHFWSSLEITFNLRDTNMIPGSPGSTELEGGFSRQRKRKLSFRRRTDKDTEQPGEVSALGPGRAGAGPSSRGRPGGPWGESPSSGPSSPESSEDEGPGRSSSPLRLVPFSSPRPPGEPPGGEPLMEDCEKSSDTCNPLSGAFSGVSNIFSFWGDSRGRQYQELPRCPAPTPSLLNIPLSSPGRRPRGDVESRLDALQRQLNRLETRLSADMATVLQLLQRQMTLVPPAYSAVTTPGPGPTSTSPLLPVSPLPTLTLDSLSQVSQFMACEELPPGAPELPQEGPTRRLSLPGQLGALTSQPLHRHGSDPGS

| Compound | hERG current change (%, negative = inhibition) at 1uM |
| --- | --- |
| Cc1cc(C)cc(CC2CC(=O)N(c3ccc(Cl)cn3)C2=O)c1 (stereo not drawn) | -6.65% |
| CCOC(CCNC(=O)c1cn(CCOC)c(=O)c2c1c1ccccc1n2C)OCC | 9.45% |
| CSc1ccccc1NC(=O)CN(C)C(C)C(=O)NC(=O)NC1CCCCC1 (stereo not drawn) | 10.2% |
| CC1(C)C(=O)NCCN1C(=O)CC1C(=O)NCCN1Cc1cccc(C(F)(F)F)c1 (stereo not drawn) | 11.9% |
| Nc1nc2ccc([N+](=O)[O-])cc2[nH]1 | 16.5% |
| Cc1nc2c(-c3ccc(Cl)cc3)c(C)[nH]n2c(=O)c1Cc1ccccc1 | 12.2% |
| CCN(CC(=O)NCc1ccco1)S(=O)(=O)c1ccc(OC)cc1 | 6.85% |
| CN1CCN(C(=O)/C(=C/c2ccc([N+](=O)[O-])cc2)NC(=O)c2ccccc2)CC1 | -90.4% |
| O=C(CN1C(=O)NC2(CCCC2)C1=O)N1CCN(S(=O)(=O)c2ccccc2[N+](=O)[O-])CC1 | 8.29% |
| CCOC(=O)N1CCN(S(=O)(=O)c2ccc(C)cc2)C1c1ccc(OC)cc1 (stereo not drawn) | 11.1% |
| CN(c1ccccc1)S(=O)(=O)c1ccc(C(=O)NCCc2ccc(F)cc2)cc1 | 12.6% |
| O=C(CN1CCOCC1)NN=C1CCCCCCCCCCC1 | 6.55% |
| Cc1cc(C)n(-c2ccc(C(=O)OCC(=O)Nc3ccc([N+](=O)[O-])cc3)cc2)n1 | -4.29% |
| Cn1c(=O)cc(OCC(=O)NCCc2ccc(Cl)cc2)c2ccccc21 | -0.158% |
| Cc1ccc(C(=O)N(C)CCOc2ccccc2)cc1S(=O)(=O)N1CCOCC1 | 5.62% |
| O=C(c1ccccc1)c1cc([N+](=O)[O-])ccc1N1CCOCC1 | 10.9% |
| S=C(NCCc1ccccc1)N1CCCCC1 | 8.21% |
| Cc1cccc(NC(=O)CCn2cnnn2)c1 | 14.9% |
| CCc1c(C)sc(NC(=O)c2ccccc2[N+](=O)[O-])c1C(N)=O | 6.41% |
| O=C(Nc1ccc2c(c1)OCO2)c1cc(-c2cccc(O)c2)on1 | -35.9% |
| O=C(NCc1ccc2c(c1)OCO2)Nc1ccc([N+](=O)[O-])cc1 | 17.9% |
| O=C(NCC(c1ccc(F)cc1)N1CCOCC1)c1nn(-c2ccccc2)c(=O)c2ccccc12 (stereo not drawn) | -5.24% |
| CC(=O)OCCn1c(=O)c2cc3c(=O)n(CCOC(C)=O)c(=O)c3cc2c1=O | 2.8% |

| Compound | hERG current change (%, negative = inhibition) at 1uM |
| --- | --- |
| COc1cc(CN2CCC(C(N)=O)CC2)ccc1OCc1ccccc1.O=C(O)C(=O)O | 0.71% |
| Cc1cc(C)nc(SCC(=O)OCC(=O)Nc2nc3ccccc3s2)n1 | 20.3% |
| CCOC(=O)N1CCN(C(=O)C(C)(C)Oc2ccc(Cl)cc2)CC1 | 6.1% |
| Cc1c(C(=O)OCc2ccc(F)cc2)sc2nc3n(c(=O)c12)CCC3 | 11% |
| CCc1ccc(CN(C)Cc2nc(Cc3ccc(OC)c(OC)c3)no2)nc1 | 6.34% |
| COc1ccc(Nc2ncc(C(=O)O)c3ccccc23)cc1 | 18.9% |
| O=C(N/N=C/C=C/c1ccccc1)c1cc2c(ccc3ccccc32)o1 | 1.69% |
| O=C(NC1CCC(O)CC1)c1cc(-c2ccc(Cl)cc2)nc2ccccc12 (stereo not drawn) | 3.6% |
| CCOc1ccccc1NC(=O)N1CCCC1C(=O)Nc1ccc(NC(C)=O)cc1 (stereo not drawn) | 6.33% |
| Cc1ccc(Cn2ncc3c(N4CCCC4)ncnc32)cc1 | -20.4% |
| O=C(O)c1cc(C2CC2)nn1-c1ccccc1 | 4.87% |
| O=C(O)CN1C(=O)COc2ccc(S(=O)(=O)N3CCCCCC3)cc21 | 10.2% |
| Cc1ccc(-n2nnnc2SCC#N)cc1 | 8.29% |
| COC(=O)CCC(=O)Nc1nc(-c2ccccc2)cs1 | 13.4% |
| O=C(CCn1c(=S)[nH]c2ccccc2c1=O)Nc1ccc(F)cc1 | 14.4% |
| COc1ccc(S(=O)(=O)N2CCOC2CNC(=O)C(=O)NCCCn2ccnc2)cc1OC (stereo not drawn) | 8.81% |
| C=C(C)c1cccc(C(C)(C)NC(=O)N2CCCC(C)C2)c1 (stereo not drawn) | 16.4% |
| CN(CCO)CCOCCOc1cccc2ccccc12 | 4.69% |
| CCOC(=O)NC(c1ccc(C(C)C)cc1)C(Cl)(Cl)Cl (stereo not drawn) | 12.2% |
| CCCn1nnc(NC(=O)c2ccccc2Cl)n1 | 14.8% |
| COc1cc(OC)c(OC)cc1/C=C1\C(=O)NC(=O)N(Cc2ccccc2)C1=O | 15.8% |
| c1csc(-c2csc3ncnc(NCCCN4CCOCC4)c23)c1 | -10.9% |
